# Results: the supplement of paper PMC8728848
# The other results are listed elsewhere or left out.
# Legend:
# Assay in all cases: glycan array binding signal (z-score within array); higher = stronger binding
# Details in all cases: glycan notation: IUPAC condensed, linker removed
# Gal3S(b1-3)GlcNAc = target: Gal3S(b1-3)GlcNAc
# In short: (§1)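 From the Consortium for Functional Glycomics database, 3228 arrays were curated, keeping only those whose protein sequence was available. Binding is given as a within-array Z-score averaged across arrays sharing a protein sequence and across linkers. Negative Z-scores can be read as non-binding.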
# [1] = target: Gal3S(b1-3)[Fuc(a1-4)]GalNAc
# In short: as §1
# [2] = target: Gal3S(b1-3)[Fuc(a1-4)]GlcNAc
# In short: as §1
# Gal3S(b1-4)Glc = target: Gal3S(b1-4)Glc
# In short: as §1
# Gal3S(b1-4)Glc6S = target: Gal3S(b1-4)Glc6S
# In short: as §1
# Gal3S(b1-4)GlcNAc = target: Gal3S(b1-4)GlcNAc
# In short: as §1
# Gal3S(b1-4)GlcNAc6S = target: Gal3S(b1-4)GlcNAc6S
# In short: as §1
# [3] = target: Gal3S(b1-4)[Fuc(a1-3)]Glc
# In short: as §1
# [4] = target: Gal3S(b1-4)[Fuc(a1-3)]Glc6S
# In short: as §1
# [5] = target: Gal3S(b1-4)[Fuc(a1-3)]GlcNAc
# In short: as §1
# [6] = target: Gal3S(b1-4)[Fuc(a1-3)]GlcNAc6S
# In short: as §1
# Gal3S4S(b1-4)GlcNAc = target: Gal3S4S(b1-4)GlcNAc
# In short: as §1
# Gal3S6S(b1-4)GlcNAc = target: Gal3S6S(b1-4)GlcNAc
# In short: as §1
# Gal3S6S(b1-4)GlcNAc6S = target: Gal3S6S(b1-4)GlcNAc6S
# In short: as §1
# Gal4S(b1-4)GlcNAc = target: Gal4S(b1-4)GlcNAc
# In short: as §1
# Gal4S6S(b1-4)GlcNAc = target: Gal4S6S(b1-4)GlcNAc
# In short: as §1
# Gal6P(b1-4)GlcNAc = target: Gal6P(b1-4)GlcNAc
# In short: as §1
# Gal6S(b1-3)GlcNAc = target: Gal6S(b1-3)GlcNAc
# In short: as §1
# Gal6S(b1-3)GlcNAc6S = target: Gal6S(b1-3)GlcNAc6S
# In short: as §1
# Gal6S(b1-4)Glc = target: Gal6S(b1-4)Glc
# In short: as §1
# Gal6S(b1-4)Glc6S = target: Gal6S(b1-4)Glc6S
# In short: as §1
# Gal6S(b1-4)GlcNAc = target: Gal6S(b1-4)GlcNAc
# In short: as §1
# Gal6S(b1-4)GlcNAc6S = target: Gal6S(b1-4)GlcNAc6S
# In short: as §1
# GalNAc(a1-3)Gal = target: GalNAc(a1-3)Gal
# In short: as §1
# GalNAc(a1-3)GalNAc = target: GalNAc(a1-3)GalNAc
# In short: as §1
# [7] = target: GalNAc(a1-3)GalNAc(a1-3)Gal(a1-4)Gal(b1-4)GlcNAc
# In short: as §1
# [8] = target: GalNAc(a1-3)GalNAc(b1-3)Gal(a1-4)Gal(b1-4)Glc
# In short: as §1
# [9] = target: GalNAc(a1-3)GalNAc(b1-3)Gal(a1-4)Gal(b1-4)GlcNAc
# In short: as §1
# GalNAc(b1-3)Gal = target: GalNAc(b1-3)Gal
# In short: as §1
# [10] = target: GalNAc(b1-3)Gal(a1-4)Gal(b1-4)GlcNAc
# In short: as §1
# [11] = target: GalNAc(b1-3)Gal(a1-4)Gal(b1-4)GlcNAc(b1-3)Gal(b1-4)Glc
# In short: as §1
# [12] = target: GalNAc(b1-3)Gal(a1-6)Gal(b1-4)Glc
# In short: as §1
# GalNAc(b1-3)GalNAc = target: GalNAc(b1-3)GalNAc
# In short: as §1
# GalNAc(b1-3)GlcNAc = target: GalNAc(b1-3)GlcNAc
# In short: as §1
# GalNAc(b1-4)Gal(b1-4)Glc = target: GalNAc(b1-4)Gal(b1-4)Glc
# In short: as §1
# GalNAc(b1-4)GlcNAc = target: GalNAc(b1-4)GlcNAc
# In short: as §1
# [13] = target: GalNAc(b1-4)GlcNAc(b1-2)Man
# In short: as §1
# [14] = target: GalNAc(b1-4)GlcNAc(b1-2)Man(a1-3)[GalNAc(b1-4)GlcNAc(b1-2)Man(a1-6)]Man(b1-4)GlcNAc(b1-4)GlcNAc
# In short: as §1
# [15] = target: GalNAc(b1-4)GlcNAc(b1-3)GalNAc(b1-4)GlcNAc
# In short: as §1
# GalNAc(b1-4)GlcNAc6S = target: GalNAc(b1-4)GlcNAc6S
# In short: as §1
# GalNAc(b1-6)GalNAc = target: GalNAc(b1-6)GalNAc
# In short: as §1
# GalNAc3S(b1-4)GlcNAc = target: GalNAc3S(b1-4)GlcNAc
# In short: as §1
# GalNAc3S(b1-4)GlcNAc3S = target: GalNAc3S(b1-4)GlcNAc3S
# In short: as §1
# [16] = target: GalNAc3S(b1-4)[Fuc(a1-3)]GlcNAc
# In short: as §1
# GalNAc4S6S(b1-4)GlcNAc = target: GalNAc4S6S(b1-4)GlcNAc
# In short: as §1
binder,measurement,setting,value
"LSECtin (Homo sapiens), Q6UXB4 (protein) MDTTRYSKWGGSSEEVPGGPWGRWVHWSRRPLFLALAVLVTTVLWAVILSILLSKASTERAALLDGHDLLRTNASKQTAALGALKEEVGDCHSCCSGTQAQLQTTRAELGEAQAKLMEQESALRELRERVTQGLAEAGRGREDVRTELFRALEAVRLQNNSCEPCPTSWLSFEGSCYFFSVPKTTWAAAQDHCADASAHLVIVGGLDEQGFLTRNTRGRGYWLGLRAVRHLGKVQGYQWVDGVSLSFSHWNQGEPNDAWGRENCVMMLHTGLWNDAPCDSEKDGWICEKRHNC",glycan array binding signal (z-score),Gal3S(b1-3)GlcNAc,-0.029
same,glycan array binding signal (z-score),[1],-0.13
same,glycan array binding signal (z-score),[2],-0.158
same,glycan array binding signal (z-score),Gal3S(b1-4)Glc,-0.216
same,glycan array binding signal (z-score),Gal3S(b1-4)Glc6S,-0.136
same,glycan array binding signal (z-score),Gal3S(b1-4)GlcNAc,-0.021
same,glycan array binding signal (z-score),Gal3S(b1-4)GlcNAc6S,0.471
same,glycan array binding signal (z-score),[3],-0.173
same,glycan array binding signal (z-score),[4],-0.107
same,glycan array binding signal (z-score),[5],-0.132
same,glycan array binding signal (z-score),[6],-0.133
same,glycan array binding signal (z-score),Gal3S4S(b1-4)GlcNAc,0.482
same,glycan array binding signal (z-score),Gal3S6S(b1-4)GlcNAc,-0.198
same,glycan array binding signal (z-score),Gal3S6S(b1-4)GlcNAc6S,-0.05
same,glycan array binding signal (z-score),Gal4S(b1-4)GlcNAc,-0.143
same,glycan array binding signal (z-score),Gal4S6S(b1-4)GlcNAc,-0.19
same,glycan array binding signal (z-score),Gal6P(b1-4)GlcNAc,-0.12
same,glycan array binding signal (z-score),Gal6S(b1-3)GlcNAc,-0.138
same,glycan array binding signal (z-score),Gal6S(b1-3)GlcNAc6S,-0.136
same,glycan array binding signal (z-score),Gal6S(b1-4)Glc,-0.141
same,glycan array binding signal (z-score),Gal6S(b1-4)Glc6S,-0.207
same,glycan array binding signal (z-score),Gal6S(b1-4)GlcNAc,-0.19
same,glycan array binding signal (z-score),Gal6S(b1-4)GlcNAc6S,-0.109
same,glycan array binding signal (z-score),GalNAc(a1-3)Gal,-0.117
same,glycan array binding signal (z-score),GalNAc(a1-3)GalNAc,-0.153
same,glycan array binding signal (z-score),[7],-0.148
same,glycan array binding signal (z-score),[8],-0.135
same,glycan array binding signal (z-score),[9],-0.139
same,glycan array binding signal (z-score),GalNAc(b1-3)Gal,-0.182
same,glycan array binding signal (z-score),[10],-0.199
same,glycan array binding signal (z-score),[11],-0.138
same,glycan array binding signal (z-score),[12],-0.134
same,glycan array binding signal (z-score),GalNAc(b1-3)GalNAc,-0.221
same,glycan array binding signal (z-score),GalNAc(b1-3)GlcNAc,-0.127
same,glycan array binding signal (z-score),GalNAc(b1-4)Gal(b1-4)Glc,-0.125
same,glycan array binding signal (z-score),GalNAc(b1-4)GlcNAc,-0.205
same,glycan array binding signal (z-score),[13],0.068
same,glycan array binding signal (z-score),[14],-0.183
same,glycan array binding signal (z-score),[15],-0.14
same,glycan array binding signal (z-score),GalNAc(b1-4)GlcNAc6S,-0.114
same,glycan array binding signal (z-score),GalNAc(b1-6)GalNAc,-0.128
same,glycan array binding signal (z-score),GalNAc3S(b1-4)GlcNAc,-0.139
same,glycan array binding signal (z-score),GalNAc3S(b1-4)GlcNAc3S,-0.138
same,glycan array binding signal (z-score),[16],-0.122
same,glycan array binding signal (z-score),GalNAc4S6S(b1-4)GlcNAc,-0.141
